# Laboratory results published in the supplement of paper PMC8728848.
# Some of the results follow.
# Assays:
# Experiment in all cases: glycan array binding signal (z-score within array); higher = stronger binding
# Settings in all cases: glycan notation: IUPAC condensed, linker removed
# Gal(a1-3)Gal(b1-3)GlcNAc = biological target: Gal(a1-3)Gal(b1-3)GlcNAc
# How it was run: (§1)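 The binding signal is a Z-score computed within each array. Data were drawn from 3228 arrays in the Consortium for Functional Glycomics database, restricted to those with a known protein sequence. Scores were averaged over arrays of the same protein sequence at different concentrations or buffers, and over linkers, and negative values can be taken as non-binding.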
# [1] = biological target: Gal(a1-3)Gal(b1-3)GlcNAc(b1-2)Man
# How it was run: as §1
# [2] = biological target: Gal(a1-3)Gal(b1-3)GlcNAc(b1-2)Man(a1-3)[Gal(a1-3)Gal(b1-3)GlcNAc(b1-2)Man(a1-6)]Man(b1-4)GlcNAc(b1-4)GlcNAc
# How it was run: as §1
# [3] = biological target: Gal(a1-3)Gal(b1-3)GlcNAc(b1-3)GalNAc
# How it was run: as §1
# [4] = biological target: Gal(a1-3)Gal(b1-3)GlcNAc(b1-6)GalNAc
# How it was run: as §1
# [5] = biological target: Gal(a1-3)Gal(b1-3)[Fuc(a1-4)]GlcNAc(b1-2)Man(a1-3)[Gal(a1-3)Gal(b1-3)[Fuc(a1-4)]GlcNAc(b1-2)Man(a1-6)]Man(b1-4)GlcNAc(b1-4)GlcNAc
# How it was run: as §1
# Gal(a1-3)Gal(b1-4)Glc = biological target: Gal(a1-3)Gal(b1-4)Glc
# How it was run: as §1
# Gal(a1-3)Gal(b1-4)GlcNAc = biological target: Gal(a1-3)Gal(b1-4)GlcNAc
# How it was run: as §1
# [6] = biological target: Gal(a1-3)Gal(b1-4)GlcNAc(b1-2)Man
# How it was run: as §1
# [7] = biological target: Gal(a1-3)Gal(b1-4)GlcNAc(b1-2)Man(a1-3)[Gal(a1-3)Gal(b1-4)GlcNAc(b1-2)Man(a1-6)]Man(b1-4)GlcNAc(b1-4)GlcNAc
# How it was run: as §1
# [8] = biological target: Gal(a1-3)Gal(b1-4)GlcNAc(b1-3)GalNAc
# How it was run: as §1
# [9] = biological target: Gal(a1-3)Gal(b1-4)GlcNAc(b1-6)GalNAc
# How it was run: as §1
# [10] = biological target: Gal(a1-3)Gal(b1-4)[Fuc(a1-3)]GlcNAc
# How it was run: as §1
# [11] = biological target: Gal(a1-3)Gal(b1-4)[Fuc(a1-3)]GlcNAc(b1-2)Man(a1-3)[Gal(a1-3)Gal(b1-4)[Fuc(a1-3)]GlcNAc(b1-2)Man(a1-6)]Man(b1-4)GlcNAc(b1-4)GlcNAc
# How it was run: as §1
# Gal(a1-3)GalNAc = biological target: Gal(a1-3)GalNAc
# How it was run: as §1
# [12] = biological target: Gal(a1-3)[Gal(a1-4)]Gal(b1-4)GlcNAc
# How it was run: as §1
# [13] = biological target: Gal(a1-4)Gal(b1-3)GlcNAc(b1-2)Man(a1-3)[Gal(a1-4)Gal(b1-3)GlcNAc(b1-2)Man(a1-6)]Man(b1-4)GlcNAc(b1-4)GlcNAc
# How it was run: as §1
# Gal(a1-4)Gal(b1-4)Glc = biological target: Gal(a1-4)Gal(b1-4)Glc
# How it was run: as §1
# Gal(a1-4)Gal(b1-4)GlcNAc = biological target: Gal(a1-4)Gal(b1-4)GlcNAc
# How it was run: as §1
# [14] = biological target: Gal(a1-4)Gal(b1-4)GlcNAc(b1-2)Man(a1-3)[Gal(a1-4)Gal(b1-4)GlcNAc(b1-2)Man(a1-6)]Man(b1-4)GlcNAc(b1-4)GlcNAc
# How it was run: as §1
# [15] = biological target: Gal(a1-4)Gal(b1-4)GlcNAc(b1-3)Gal(b1-4)Glc
# How it was run: as §1
# Gal(a1-4)GlcNAc = biological target: Gal(a1-4)GlcNAc
# How it was run: as §1
# Gal(a1-6)Glc = biological target: Gal(a1-6)Glc
# How it was run: as §1
# Gal(b1-2)Gal = biological target: Gal(b1-2)Gal
# How it was run: as §1
# Gal(b1-3)Gal = biological target: Gal(b1-3)Gal
# How it was run: as §1
# Gal(b1-3)Gal(b1-4)GlcNAc = biological target: Gal(b1-3)Gal(b1-4)GlcNAc
# How it was run: as §1
# Gal(b1-3)GalNAc = biological target: Gal(b1-3)GalNAc
# How it was run: as §1
# [16] = biological target: Gal(b1-3)GalNAc(a1-3)[Fuc(a1-2)]Gal(b1-4)Glc
# How it was run: as §1
# [17] = biological target: Gal(b1-3)GalNAc(a1-3)[Fuc(a1-2)]Gal(b1-4)GlcNAc
# How it was run: as §1
# Gal(b1-3)GalNAc(b1-3)Gal = biological target: Gal(b1-3)GalNAc(b1-3)Gal
# How it was run: as §1
# [18] = biological target: Gal(b1-3)GalNAc(b1-3)Gal(a1-4)Gal(b1-4)Glc
# How it was run: as §1
# [19] = biological target: Gal(b1-3)GalNAc(b1-4)Gal(b1-4)Glc
# How it was run: as §1
# [20] = biological target: Gal(b1-3)GalNAc(b1-4)[Neu5Ac(a2-3)]Gal(b1-4)Glc
# How it was run: as §1
# Gal(b1-3)GlcNAc = biological target: Gal(b1-3)GlcNAc
# How it was run: as §1
# [21] = biological target: Gal(b1-3)GlcNAc(a1-3)Gal(b1-4)GlcNAc
# How it was run: as §1
# [22] = biological target: Gal(b1-3)GlcNAc(a1-6)Gal(b1-4)GlcNAc
# How it was run: as §1
# Gal(b1-3)GlcNAc(b1-2)Man = biological target: Gal(b1-3)GlcNAc(b1-2)Man
# How it was run: as §1
# [23] = biological target: Gal(b1-3)GlcNAc(b1-2)Man(a1-3)[Gal(b1-3)GlcNAc(b1-2)Man(a1-6)]Man(b1-4)GlcNAc(b1-4)GlcNAc
# How it was run: as §1
binder,measurement,setting,value
ClecSol-Fc (Cryptosporidium parvum) (protein) CPEGWISNGEKTRCFKLVTFDRPRTFSHGFKACNDLGGTEVETRRRNGSKETNEYPVTLASVYKLSDEEAIRRTLVEQGDIHKTANGCFVGLRKYAFFRYPPGWYWIDSGSPVSVRDSEINWTSSYNASWLLRFKFPFEKCGFFDIGGLGRRPCWLIDSELSCAVCGTVAYDSGGLNPNKYSELIKQTDEIISKEPKLDLPGYNNLNCTDAWENNLSVGLCQNVSNILDSAWSSYQSSLNFPSINFNWKEDSTNEGGDQVYHNSYLDLPRYKQKKTFYWDQDPGTIPALSDEMKLIGLSAQPTYHPLDRSSSGSFESDSTESGRANEERNDTLEEMIYKQSSDSIEDILVPVTKPIFSDYSSIGRNSGVEEVYSSNVSTISSKGVVFPNTTTSSDNDFTKNNPANSSKHTSTSTTTNTTTTTTRTTTTTTTTTTTTTTTTTTTTETTTTKKSTTATKNTTTT,glycan array binding signal (z-score),Gal(a1-3)Gal(b1-3)GlcNAc,0.156
same,glycan array binding signal (z-score),[1],-0.009
same,glycan array binding signal (z-score),[2],-0.058
same,glycan array binding signal (z-score),[3],0.185
same,glycan array binding signal (z-score),[4],-0.177
same,glycan array binding signal (z-score),[5],0.183
same,glycan array binding signal (z-score),Gal(a1-3)Gal(b1-4)Glc,-0.003
same,glycan array binding signal (z-score),Gal(a1-3)Gal(b1-4)GlcNAc,-0.137
same,glycan array binding signal (z-score),[6],-0.243
same,glycan array binding signal (z-score),[7],-0.124
same,glycan array binding signal (z-score),[8],-0.245
same,glycan array binding signal (z-score),[9],0.163
same,glycan array binding signal (z-score),[10],-0.198
same,glycan array binding signal (z-score),[11],0.063
same,glycan array binding signal (z-score),Gal(a1-3)GalNAc,-0.136
same,glycan array binding signal (z-score),[12],-0.114
same,glycan array binding signal (z-score),[13],-0.159
same,glycan array binding signal (z-score),Gal(a1-4)Gal(b1-4)Glc,-0.197
same,glycan array binding signal (z-score),Gal(a1-4)Gal(b1-4)GlcNAc,-0.064
same,glycan array binding signal (z-score),[14],-0.072
same,glycan array binding signal (z-score),[15],-0.186
same,glycan array binding signal (z-score),Gal(a1-4)GlcNAc,-0.167
same,glycan array binding signal (z-score),Gal(a1-6)Glc,-0.228
same,glycan array binding signal (z-score),Gal(b1-2)Gal,-0.18
same,glycan array binding signal (z-score),Gal(b1-3)Gal,-0.059
same,glycan array binding signal (z-score),Gal(b1-3)Gal(b1-4)GlcNAc,-0.094
same,glycan array binding signal (z-score),Gal(b1-3)GalNAc,-0.117
same,glycan array binding signal (z-score),[16],-0.248
same,glycan array binding signal (z-score),[17],0.061
same,glycan array binding signal (z-score),Gal(b1-3)GalNAc(b1-3)Gal,0.033
same,glycan array binding signal (z-score),[18],0.031
same,glycan array binding signal (z-score),[19],-0.075
same,glycan array binding signal (z-score),[20],-0.256
same,glycan array binding signal (z-score),Gal(b1-3)GlcNAc,-0.084
same,glycan array binding signal (z-score),[21],-0.002
same,glycan array binding signal (z-score),[22],-0.267
same,glycan array binding signal (z-score),Gal(b1-3)GlcNAc(b1-2)Man,0.452
same,glycan array binding signal (z-score),[23],-0.166
